Source: patent CN112625136A (SANYOU BIOPHARMACEUTICALS SHANGHAI CO LTD; SHANGHAI ZJ BIO …, dated 2021)

Assays:
[1] = molecular target: T1, S蛋白RBD-His(319Arg-532Asn) (2019-nCoV (SARS-CoV-2))
[2] = molecular target: T1, S蛋白RBD-His(319Arg-532Asn); test: blocking ELISA as in Example 6.1: ACE2-huFc coated, biotin-labelled RBD-His

B1: P14-F8 (Fc fusion)
chain: EVQLVESGGGLVQPGGSLRLSCAASGFRFGSYYMSWVRQAPGKAPEWVSDINTRGETTRYSDSVKGRFTIARDNANNTVFLFMNRLKPEDTAVYYCAVAASGDTFEGRSDPDYWGQGTLVTVSS[human IgG1 Fc with changes not spelt out]
notes: also called P14-F8-Parental; 候选驼源纳米抗体P14-F8
Kd [1]: 18.2 nM
koff [1]: 0.00251 s⁻¹
kon [1]: 138000 M⁻¹ s⁻¹
IC50 [2]: 1.89 nM
